Values joined by “and” are separate entries in the source; they are usually repeats but may differ in a detail not shown here. Equal values may be shown once. About 50,000 (12%) of roughly 420,000 compounds were called active. Inconclusive results, whose numbers are uncertain, are shown with a selection of clear calls. The call rests on the fitted dose curve; in most records, active means well fitted inhibition curve with a large enough effect; inconclusive means small, poorly fitted or top-dose-only effect; inactive means flat fitted curve, though single readings scatter. Where the call is inconclusive, the potency comes from a doubtful curve fit.
test: qHTS for Inhibitors of human tyrosyl-DNA phosphodiesterase 1 (TDP1): qHTS in cells in presence of CPT; conditions: chicken DT40 Tdp1-/-;hTDP1 cells + 20 nM CPT, ATP luminescence, 48 h; activity change, negative = growth inhibition: at 46.2 µM (top of the series); further: nearly all actives have a fitted effect of over 55% in size
Procedure, shortened: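 Chicken DT40 Tdp1-/- cells stably complemented with human TDP1 were seeded at 400 cells/well in medium containing 20 nM camptothecin, exposed to pin-transferred compounds, and grown at 37 °C for at least 48 hr. Viability was read as ATP luminescence.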
On the % scale 0 is the no-effect control and ±100 the full control effect; potency means the concentration at half of the fitted maximal effect; tags describe the fitted curve by direction and shape.

SMILES | Potency | activity change, negative = growth inhibition
Nc1nc(CN2CCc3ccccc3C2)nc(Nc2ccccc2)n1 | inconclusive: 23.1 µM [inhibitor, partial curve] | –
Cn1nc(-c2ccc(OCC(=O)Nc3ccc(Cl)cc3)cc2)c2ccccc2c1=O | inconclusive: 16.4 µM [inhibitor, single point] | –
COc1ccc(-c2c(C)oc3ccc(C)cc23)cc1 | inactive | –
CCN(C(=O)c1cc2c(=O)n(CC)c3ccccc3c2s1)c1cccc(C(F)(F)F)c1 | active: 9.2 µM | –
CCCCCCN1C[C@H](n2cc(C3CC3)nn2)[C@@H](O)C[C@@H]1c1ccc(Cl)cc1 | inconclusive: 29.1 µM [inhibitor, single point] | –
Cc1cccc(-c2cc3nc(C)cc(NCCCn4ccnc4)n3n2)c1 | inconclusive: 23.1 µM [inhibitor, single point] | –
COc1ccc(CCNC(=O)c2c(O)c3ccccc3[nH]c2=O)cc1OC | inactive | –
COc1cccc(/C=N/NC(=O)CSc2cccc3cccnc23)c1 | inconclusive: 20.6 µM [inhibitor, single point] | –
Cc1cccc(CN2CCN(C(=O)CCl)CC2)c1 | active: 14.6 µM | –
CC(C)=CCc1c(O)c(CC=C(C)C)c2occ(-c3ccc(O)cc3)c(=O)c2c1O | active: 18.4 µM | –
COc1ccc(S(=O)(=O)Nc2cc3c(C(C)=O)c(C)oc3c3ccccc23)cc1 | active: 0.651 µM | –
O=C(NCCCNC(=O)c1ccccc1F)c1ccco1 | inactive | –
c1cncc(-c2ccc3ncnc(NCCN4CCOCC4)c3c2)c1 | inconclusive: 25.9 µM [inhibitor, single point] | –
COc1ccccc1C(=O)NCC(=O)OCC(=O)c1cccc2ccccc12 | inactive and inconclusive: 11.2 µM [inhibitor, single point] | –
CC(Cn1cncn1)C(=O)N1CCN(S(=O)(=O)c2ccccc2)CC1 (centres undefined) | inactive | –
Cc1cnc(-c2nc3ccccc3n2C(C(=O)NC(C)(C)C)c2cc3ccccc3o2)cn1 (centres undefined) | inconclusive: 29.1 µM [inhibitor, single point] | –
COc1ccccc1-c1ccc(Nc2ccc(C(=O)N3CCOCC3)cc2)nn1 | inconclusive: 29.1 µM [inhibitor, single point] | –
CN(C)S(=O)(=O)c1ccc(NC(=O)Cn2nc(-c3ccc4c(c3)OCCO4)ccc2=O)cc1 | inconclusive: 25.9 µM [inhibitor, single point] | –
Cc1ccc(-c2nc(CCNC(=O)C(=O)Nc3ccc(C)c(Cl)c3)cs2)cc1 | inconclusive: 18.4 µM [inhibitor, single point] | –
O=C(C1CCC(Cn2c(=S)[nH]c3ccccc3c2=O)CC1)N1CCN(c2ccccn2)CC1 (centres undefined) | inconclusive: 23.1 µM [inhibitor, single point] | –
O=C(Nc1nc2ccccc2[nH]1)C1CC(=O)N(c2ccc3c(c2)OCCO3)C1 (centres undefined) | inactive | –
O=C(NS(=O)(=O)Oc1ccc(Cl)cc1)OC[C@@H]1CCCN2CCCC[C@H]12 | inactive | –
O=C(Nc1ccccc1)c1cccc(N2C(=O)C3C4C=CC(C4)C3C2=O)c1 (centres undefined) | inactive | –
CCOc1ccc(C(=O)NCC(=O)Nc2ccncc2)cc1OCC | inactive | –
CCOc1ccc(-n2c(-c3ccccc3)c[n+]3c2CCCCC3)cc1 | active: 0.146 µM | –

SMILES | Potency | activity change, negative = growth inhibition
CCCOc1ccc(CNC(=O)CCCN2C(=O)CSc3c2c(C)nn3-c2ccccc2)cc1 | active: 20.6 µM | –
CCC1CCCCN1C(=O)c1cc2c(=O)n3cccc(C)c3nc2s1 (centres undefined) | inconclusive: 29.1 µM [inhibitor, single point] | –
COc1cccc(OC)c1C(=O)NNS(=O)(=O)c1ccc2ccccc2c1 | inactive | –
COc1cc(NC(=O)C2(C)CCCN2C(=O)C(C)C)cc(OC)c1OC (centres undefined) | inactive | –
CCOC(=O)c1cnc(-c2ccccc2)nc1Oc1cccc(Cl)c1 | inconclusive: 18.4 µM [inhibitor, single point] | –
COc1ccccc1C(=O)Nc1ccccc1C(=O)OCc1cc(=O)n2ccsc2n1 | inactive | –
COc1cccc(C(=O)Nc2c(C(N)=O)oc3ccccc23)c1 | inconclusive: 29.1 µM [inhibitor, single point] | –
CCOc1ccccc1N1CN(Cc2ccccc2)CNC1=S | inactive | –
COc1cccc(CNC(=O)CCC2CCCN(C(=O)c3cc(C4CC4)[nH]n3)C2)c1 (centres undefined) | inconclusive: 29.1 µM [inhibitor, single point] | –
COc1ccc(C2(N3CCN(c4cc(C)ccc4C)CC3)C(=O)c3ccccc3C2=O)cc1 | inconclusive: 29.1 µM [inhibitor, single point] | –
O=C(O)CCCC(=O)N(Cc1ccccc1)Cc1ccccc1 | inactive | –
Cc1ccccc1C(=O)Nc1ccccc1N1CCCCC1 | inconclusive: 29.1 µM [inhibitor, single point] | –
CCOC(=O)CN(C(=O)CSc1nnc(CNc2ccc(C)cc2C)o1)c1ccccc1 | inconclusive: 1.3 µM [inhibitor, full curve] | –
COc1ccc2nc(-c3ccccc3)cc(C(=O)N3CCC3)c2c1 | active: 23.1 µM | –
Cc1ccc(/C=N/NC(=O)CC2N=C(Cc3ccccc3)NNC2=O)cc1 (centres undefined) | inactive | –
Cc1cc(-c2ccccc2)nc(N/N=C/c2cccnc2)n1 | inactive | –
COCCN(Cc1cc2cc(C)ccc2nc1Cl)C(=O)Nc1ccccc1C | active: 16.4 µM | –
O=C(CN1C(=O)NC2(CCCCCC2)C1=O)N1CCN(c2ccc(F)cc2)CC1 | inconclusive: 29.1 µM [inhibitor, single point] | –
CCOc1ccc(C(=O)N2CCN(S(=O)(=O)c3ccc4c(c3)OCCO4)CC2)cc1OCC | – | inconclusive: -32.8% [inhibitor]
CC1(C(=O)Nc2ccc3c(c2)OCO3)CCN1C(=O)CCC1CCCC1 (centres undefined) | inconclusive: 20.6 µM [inhibitor, single point] | –
CCn1cnc2c1c(=O)n(CC(=O)NCC(C)C)c(=O)n2Cc1ccccc1 | inactive | –
CC(C)Sc1nnc(-c2ccc(S(=O)(=O)N3CCOCC3)cc2)n1C | inactive | –
COc1cc(O)c(C(C)=O)c2c1C=CC(C)(C)O2 | inactive | –
CCCN(CCC)C(=O)Cn1c(SCc2cccc(F)c2)nc2cccnc21 | inconclusive: 29.1 µM [inhibitor, single point] | –

Source: PubChem BioAssay AID686979 (National Center for Advancing Translational Sciences (NCATS), 2013)
